# Results: article PMC9911399, “Two distinct binding modes provide the RNA-binding protein RbFox with extraordinary sequence specificity”
# Substitutions are numbered along the chain they refer to; changes in the protein carry UniProt numbers. This is one part of the list.
# T1: RBFOX1 RRM RbFoxmut (Fox-RRM*) (Homo sapiens, UniProt Q9NWB1 109-208, R118D;E147R;N151S;E152T)
# T1 sequence: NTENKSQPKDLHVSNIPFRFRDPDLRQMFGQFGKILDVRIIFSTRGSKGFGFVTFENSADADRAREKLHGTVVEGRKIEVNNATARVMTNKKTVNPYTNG
# B1: AUUCUCG (DNA:RNA)
# RNA: GGGAGACCGGAAUUCAGAUUGUCCAUUCUCGUUAAAUCCCGUCGUAGCCACCA
# DNA 1: CAATCTGAATTCCGGTCTCCC
# DNA 2: TGGTGGCTACGACGGGATT
# B2: GGUAGGG (DNA:RNA)
# RNA: B1 RNA with A25G, U26G, C28A, U29G, C30G
# DNA 1: CAATCTGAATTCCGGTCTCCC
# DNA 2: TGGTGGCTACGACGGGATT
# B3: AUGGCCG (DNA:RNA)
# RNA: B1 RNA with U27G, C28G, U29C
# DNA 1: CAATCTGAATTCCGGTCTCCC
# DNA 2: TGGTGGCTACGACGGGATT
# B4: CUAUGCU (DNA:RNA)
# RNA: B1 RNA with A25C, U27A, C28U, U29G, G31U
# DNA 1: CAATCTGAATTCCGGTCTCCC
# DNA 2: TGGTGGCTACGACGGGATT
# B5: AUGGACA (DNA:RNA)
# RNA: B1 RNA with U27G, C28G, U29A, G31A
# DNA 1: CAATCTGAATTCCGGTCTCCC
# DNA 2: TGGTGGCTACGACGGGATT
# B6: AUGGUGU (DNA:RNA)
# RNA: B1 RNA with U27G, C28G, C30G, G31U
# DNA 1: CAATCTGAATTCCGGTCTCCC
# DNA 2: TGGTGGCTACGACGGGATT
# B7: UGGUUAA (DNA:RNA)
# RNA: B1 RNA with A25U, U26G, U27G, C28U, C30A, G31A
# DNA 1: CAATCTGAATTCCGGTCTCCC
# DNA 2: TGGTGGCTACGACGGGATT
# B8: UGGAAAC (DNA:RNA)
# RNA: GGGAGACCGGAAUUCAGAUUGUCCUGGAAACUUAAAUCCCGUCGUAGCCACCA
# DNA 1: CAATCTGAATTCCGGTCTCCC
# DNA 2: TGGTGGCTACGACGGGATT
# B9: GAUCAGC (DNA:RNA)
# RNA: B1 RNA with A25G, U26A, U29A, C30G, G31C
# DNA 1: CAATCTGAATTCCGGTCTCCC
# DNA 2: TGGTGGCTACGACGGGATT
# B10: CGUCAAG (DNA:RNA)
# RNA: B1 RNA with A25C, U26G, U29A, C30A
# DNA 1: CAATCTGAATTCCGGTCTCCC
# DNA 2: TGGTGGCTACGACGGGATT
# B11: AAUUUGG (DNA:RNA)
# RNA: B1 RNA with U26A, C28U, C30G
# DNA 1: CAATCTGAATTCCGGTCTCCC
# DNA 2: TGGTGGCTACGACGGGATT
# B12: CAAGGUU (DNA:RNA)
# RNA: GGGAGACCGGAAUUCAGAUUGUCCCAAGGUUUUAAAUCCCGUCGUAGCCACCA
# DNA 1: CAATCTGAATTCCGGTCTCCC
# DNA 2: TGGTGGCTACGACGGGATT
# B13: CGUCGCC (DNA:RNA)
# RNA: B1 RNA with A25C, U26G, U29G, G31C
# DNA 1: CAATCTGAATTCCGGTCTCCC
# DNA 2: TGGTGGCTACGACGGGATT
# B14: CAAAAGU (DNA:RNA)
# RNA: B12 RNA with G28A, G29A, U30G
# DNA 1: CAATCTGAATTCCGGTCTCCC
# DNA 2: TGGTGGCTACGACGGGATT
# B15: CAAAGGC (DNA:RNA)
# RNA: B12 RNA with G28A, U30G, U31C
# DNA 1: CAATCTGAATTCCGGTCTCCC
# DNA 2: TGGTGGCTACGACGGGATT
# B16: GUUCGGA (DNA:RNA)
# RNA: B1 RNA with A25G, U29G, C30G, G31A
# DNA 1: CAATCTGAATTCCGGTCTCCC
# DNA 2: TGGTGGCTACGACGGGATT
# B17: CAGUGGG (DNA:RNA)
# RNA: B12 RNA with A27G, G28U, U30G, U31G
# DNA 1: CAATCTGAATTCCGGTCTCCC
# DNA 2: TGGTGGCTACGACGGGATT
# B18: AGUUAAG (DNA:RNA)
# RNA: B1 RNA with U26G, C28U, U29A, C30A
# DNA 1: CAATCTGAATTCCGGTCTCCC
# DNA 2: TGGTGGCTACGACGGGATT
# B19: ACGACUC (DNA:RNA)
# RNA: B8 RNA with U25A, G26C, A29C, A30U
# DNA 1: CAATCTGAATTCCGGTCTCCC
# DNA 2: TGGTGGCTACGACGGGATT
# B20: GGGCGUC (DNA:RNA)
# RNA: B8 RNA with U25G, A28C, A29G, A30U
# DNA 1: CAATCTGAATTCCGGTCTCCC
# DNA 2: TGGTGGCTACGACGGGATT
# B21: GCAGUAC (DNA:RNA)
# RNA: B12 RNA with C25G, A26C, G29U, U30A, U31C
# DNA 1: CAATCTGAATTCCGGTCTCCC
# DNA 2: TGGTGGCTACGACGGGATT
# B22: UCUUGCA (DNA:RNA)
# RNA: B1 RNA with A25U, U26C, C28U, U29G, G31A
# DNA 1: CAATCTGAATTCCGGTCTCCC
# DNA 2: TGGTGGCTACGACGGGATT
# B23: UGGCGCU (DNA:RNA)
# RNA: B8 RNA with A28C, A29G, A30C, C31U
# DNA 1: CAATCTGAATTCCGGTCTCCC
# DNA 2: TGGTGGCTACGACGGGATT
# B24: AGAGUAA (DNA:RNA)
# RNA: B1 RNA with U26G, U27A, C28G, C30A, G31A
# DNA 1: CAATCTGAATTCCGGTCTCCC
# DNA 2: TGGTGGCTACGACGGGATT
# B25: AUCCGCA (DNA:RNA)
# RNA: B1 RNA with U27C, U29G, G31A
# DNA 1: CAATCTGAATTCCGGTCTCCC
# DNA 2: TGGTGGCTACGACGGGATT
# B26: GACGAAG (DNA:RNA)
# RNA: B12 RNA with C25G, A27C, G29A, U30A, U31G
# DNA 1: CAATCTGAATTCCGGTCTCCC
# DNA 2: TGGTGGCTACGACGGGATT
# B27: GACGCUU (DNA:RNA)
# RNA: B12 RNA with C25G, A27C, G29C
# DNA 1: CAATCTGAATTCCGGTCTCCC
# DNA 2: TGGTGGCTACGACGGGATT
# B28: GUCCAAG (DNA:RNA)
# RNA: B1 RNA with A25G, U27C, U29A, C30A
# DNA 1: CAATCTGAATTCCGGTCTCCC
# DNA 2: TGGTGGCTACGACGGGATT
# B29: CACGCUU (DNA:RNA)
# RNA: B12 RNA with A27C, G29C
# DNA 1: CAATCTGAATTCCGGTCTCCC
# DNA 2: TGGTGGCTACGACGGGATT
# B30: AUUAAUG (DNA:RNA)
# RNA: B1 RNA with C28A, U29A, C30U
# DNA 1: CAATCTGAATTCCGGTCTCCC
# DNA 2: TGGTGGCTACGACGGGATT
# B31: AAAUGAU (DNA:RNA)
# RNA: B12 RNA with C25A, G28U, U30A
# DNA 1: CAATCTGAATTCCGGTCTCCC
# DNA 2: TGGTGGCTACGACGGGATT
# Molecular target: T1, RBFOX1 RRM RbFoxmut (Fox-RRM*)
# Assay: EMSA; HiTS-Eq, 1 nM pool, 10 min; buffer printed only for the single-RNA assays: 10 mM Tris pH 7.5, 150 mM NaCl, 3.4 mM EDTA, 0.001% NP-40, 30 C
# Settings: tags: His6 N-terminal (pET28a); label: 5' 32P
# In short: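 Purified RbFox RRM, wild type or mutant, was incubated for 10 min in 50 µL with 1 nM of a 5′-radiolabelled RNA pool carrying 7 randomized nucleotides, whose flanks were annealed to DNA oligonucleotides, over a series of increasing protein concentrations. Unbound RNA was resolved on 8% native PAGE, cut out, reverse-transcribed, barcoded by PCR and sequenced on an Illumina HiSeq 2500. Relative association constants were derived from changes in read counts for each RNA species versus the control reaction and normalised to the cognate motif.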
row,Binder,binding signal
1,B1,0.0772 KA relative to UGCAUGU
2,B2,0.0522 KA relative to UGCAUGU
3,B3,0.187 KA relative to UGCAUGU
4,B4,0.119 KA relative to UGCAUGU
5,B5,0.0565 KA relative to UGCAUGU
6,B6,0.19 KA relative to UGCAUGU
7,B7,0.112 KA relative to UGCAUGU
8,B8,0.0728 KA relative to UGCAUGU
9,B9,0.103 KA relative to UGCAUGU
10,B10,0.0956 KA relative to UGCAUGU
11,B11,0.0486 KA relative to UGCAUGU
12,B12,0.0803 KA relative to UGCAUGU
13,B13,0.0841 KA relative to UGCAUGU
14,B14,0.0967 KA relative to UGCAUGU
15,B15,0.0684 KA relative to UGCAUGU
16,B16,0.0772 KA relative to UGCAUGU

row,Binder,binding signal
1,B17,0.0954 KA relative to UGCAUGU
2,B18,0.111 KA relative to UGCAUGU
3,B19,0.063 KA relative to UGCAUGU
4,B20,0.194 KA relative to UGCAUGU
5,B21,0.0672 KA relative to UGCAUGU
6,B22,0.205 KA relative to UGCAUGU
7,B23,0.0925 KA relative to UGCAUGU
8,B24,0.128 KA relative to UGCAUGU
9,B25,0.167 KA relative to UGCAUGU
10,B26,0.0616 KA relative to UGCAUGU
11,B27,0.0757 KA relative to UGCAUGU
12,B28,0.104 KA relative to UGCAUGU
13,B29,0.103 KA relative to UGCAUGU
14,B30,0.124 KA relative to UGCAUGU
15,B31,0.0684 KA relative to UGCAUGU
